Assay results published in PubChem BioAssay AID1476 (National Center for Advancing Translational Sciences (NCATS), 2009).
The campaign covered roughly 200,000 compounds. About 4,500 (2.2%) were called active. Inconclusive results, whose numbers are uncertain, are shown with a selection of clear calls. Calls follow the shape of the dose curve; as a rule, active = well fitted inhibition curve with a large enough effect; inconclusive = small, poorly fitted or top-dose-only effect, or effect the other way; inactive = flat fitted curve, though single readings scatter. Where the call is inconclusive, the potency comes from a doubtful curve fit.

What follows are compounds tested against Cruzipain (Trypanosoma cruzi) (UniProt P25779) (assay: qHTS Assay for Promiscuous and Specific Inhibitors of Cruzain (without detergent)). Conditions: purified cruzain, Z-FR-AMC fluorescence, no detergent.
UniProt P25779, sequence (P25779 whole entry, looked up): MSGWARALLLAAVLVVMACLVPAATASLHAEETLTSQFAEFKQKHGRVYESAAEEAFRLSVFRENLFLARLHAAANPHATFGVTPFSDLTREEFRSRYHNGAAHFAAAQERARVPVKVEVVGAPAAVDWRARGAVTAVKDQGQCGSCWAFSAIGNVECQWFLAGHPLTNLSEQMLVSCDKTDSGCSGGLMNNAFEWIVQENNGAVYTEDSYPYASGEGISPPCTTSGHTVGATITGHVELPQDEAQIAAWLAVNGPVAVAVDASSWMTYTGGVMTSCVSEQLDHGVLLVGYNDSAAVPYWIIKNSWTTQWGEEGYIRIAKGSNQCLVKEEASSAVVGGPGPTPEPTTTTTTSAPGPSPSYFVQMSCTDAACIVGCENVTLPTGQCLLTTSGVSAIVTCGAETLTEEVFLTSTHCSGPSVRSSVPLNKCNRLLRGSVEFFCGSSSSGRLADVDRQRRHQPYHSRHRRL
Procedure, shortened: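 Detergent-free condition (0.00005% Triton X-100) in acetate buffer pH 5.5 with DTT. 1.5 nM enzyme and compound were pre-mixed 15 min, then 2 uM Z-FR-AMC substrate added; reaction progress from fluorescence change between first and third reads (60 s).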
Also: nearly all actives have a fitted effect of over 40% in size.
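For max response, negative = inhibition in this document: plate controls were enzyme without inhibitor for no effect and buffer without enzyme for full effect.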
Potency is read from the fitted curve at half-maximal effect; tags tell the direction and shape of the fitted curve.

SMILES	Potency	max response, negative = inhibition
CC(=O)N1CCc2cc(Br)cc(S(=O)(=O)N3CCC(C(=O)Nc4ccc(C(C)C)cc4)CC3)c21	inconclusive: 0.631 µM [activator, full curve, poor fit]	–
CCOC(=O)c1ccc(-n2c(CCC(=O)O)ccc2-c2ccccc2)cc1	inconclusive: 39.8 µM [activator, single point]	–
COc1ccc(-c2nc3c(c4nnc(SC(C)C(=O)Nc5ccc(C)cc5)n24)COC(C)(C)C3)cc1 (stereo unspecified)	inconclusive: 10 µM [activator, partial curve, poor fit]	–
CCN=C1S/C(=C\c2cc(Br)ccc2OCC(=O)OCC)C(=O)N1CC	inconclusive: 39.8 µM [activator, single point]	–
COc1ccc(C2C=C(c3ccc(Cl)cc3)Nc3nc(-c4ccc(Cl)cc4)nn32)cc1 (stereo unspecified)	–	inactive: 14.9%
O=C(CSc1n[nH]c(-c2ccc(F)cc2)n1)NCc1ccccc1Cl	–	inactive: -6.26%
O=C(O)CCC/C=C\C[C@@H]1CO[C@H](C(F)(F)F)O[C@@H]1c1ccccc1O	–	inactive: 4.99%
CCC(C)C(=O)Nc1nc(C)c(-c2csc(Nc3ccc(Cl)cc3)n2)s1 (stereo unspecified)	active: 3.98 µM	–
Cc1ccc(S(=O)(=O)NP(=O)(Oc2ccccc2)Oc2ccccc2)cc1	inconclusive: 39.8 µM [activator, single point]	–
CCOC(=O)c1cnn(-c2ccc(C(=O)Nc3ccc(C(C)=O)cc3)cc2)c1N	inconclusive: 20 µM [activator, partial curve]	–
O=C1CCSC2(C(=O)N(Cc3ccc(F)cc3)c3ccccc32)N1c1ccc(Cl)cc1 (stereo unspecified)	–	inactive: -19.7%
CCCC1=NN2C(=N)/C(=C\c3cc(C)n(-c4cccc(C)c4)c3C)C(=O)N=C2S1	inconclusive: 15.8 µM [inhibitor, single point]	–
O=C(Nc1ccc(F)cc1)C1CCC(N2C(=O)c3ccccc3C2=O)CC1 (stereo unspecified)	inconclusive: 31.6 µM [inhibitor, single point]	–
COc1ccc(C2CC(c3ccc(Cl)cc3)Nc3nc(NC(=O)c4ccco4)nn32)cc1 (stereo unspecified)	inconclusive: 31.6 µM [activator, single point]	–
C/C(CC(=O)NCc1ccco1)=N\NC(=O)Cc1ccc(-c2ccccc2)cc1	inconclusive: 15.8 µM [inhibitor, single point]	–
Cc1cc2cc(CNC(=O)c3cccs3)ccc2[nH]1	inconclusive: 39.8 µM [inhibitor, single point]	–
CCOC(=O)Cn1c(=O)oc2cc(S(=O)(=O)N3CCN(c4cccc(C)c4)C(C)C3)ccc21 (stereo unspecified)	inconclusive: 39.8 µM [activator, single point]	–
Cc1ccc2nc(SCC(=O)Nc3ccc4sc(C)nc4c3)c(C#N)cc2c1	inconclusive: 39.8 µM [inhibitor, single point]	–
COc1ccccc1CNC(=O)C(C)n1c(=O)cc(-c2ccccc2)c2c(C)nn(C)c21 (stereo unspecified)	inconclusive: 39.8 µM [activator, single point]	–
COc1ccc(-c2nc3ccccc3s2)cc1NC(=O)c1ccc(F)cc1	–	inactive: -15.9%
COc1ccc(C(=O)NCC(c2ccc(N(C)C)cc2)N2CCc3ccccc32)cc1OC (stereo unspecified)	inconclusive: 39.8 µM [activator, single point]	–

SMILES	Potency	max response, negative = inhibition
COc1ccc(NCc2nnc(SCC(=O)Nc3nc(-c4ccccc4)cs3)n2-c2ccccc2)cc1	active: 25.1 µM	–
C=CCc1ccccc1OCCSc1nc2ccc([N+](=O)[O-])cc2s1	inconclusive: 25.1 µM [inhibitor, single point]	–
O=C(/C=C/c1ccccc1)NC(NC(=S)Nc1ccc(C(=O)O)cc1)C(Cl)(Cl)Cl (stereo unspecified)	inconclusive: 31.6 µM [inhibitor, single point]	–
O=C(Nc1cccc(F)c1)c1ccc2c(c1)N(Cc1ccccc1)C(=O)c1ccccc1S2(=O)=O	inconclusive: 39.8 µM [inhibitor, single point]	–
CO/N=C(\C(=O)NC1C(=O)N2C(C(=O)OCOC(=O)C(C)(C)C)=C(/C=C\c3scnc3C)CSC12)c1csc(N)n1 (stereo unspecified)	–	inactive: 19.4%
CCc1cccc(C)c1NC(=O)CSc1nnc(CCCOc2ccc(Cl)cc2Cl)n1C	inconclusive: 39.8 µM [activator, single point]	–
CCN(C(=O)CN1C(=O)COc2ccc(S(=O)(=O)N3CCOCC3)cc21)c1ccc(OC)cc1	inconclusive: 31.6 µM [activator, single point]	–
Cc1ccc(-c2cc(C(=O)N/N=C/C=C/c3ccco3)c3ccccc3n2)cc1C	active: 25.1 µM	–
COc1ccc(CCC(=O)c2c(O)cc(OC3OC(CO)C(O)C(O)C3O[C@@H]3OC(C)C(O)C(O)C3O)cc2O)cc1O (stereo partly specified)	inconclusive: 39.8 µM [activator, single point]	–
Cc1ccc(-c2nnc(Nc3ccc(C(=O)N(C)C)cc3)c3ccccc23)cc1S(=O)(=O)N(C)C	inconclusive: 39.8 µM [activator, single point]	–
Cc1ccc(C(=O)c2oc3ccccc3c2NC(=O)c2cc(-c3ccccc3O)n[nH]2)cc1	inconclusive: 7.94 µM [inhibitor, full curve, poor fit]	–
O=C(NC1CCCCCC1)c1cc(S(=O)(=O)N2CCOCC2)ccc1N1CCCCC1	inconclusive: 31.6 µM [activator, single point]	–
COc1ccc(C2c3cc(OC)c(OC)cc3CC(=O)N2c2ccc(C)c(F)c2)cc1 (stereo unspecified)	inconclusive: 39.8 µM [activator, single point]	–
COc1ccccc1CNC(=O)CCn1c(=O)c2cccn2c2cccnc21	–	inactive: 13.5%
Cc1ccc2oc3c(c(=O)c2c1)C(c1cccc(Br)c1)N(Cc1ccco1)C3=O (stereo unspecified)	active: 25.1 µM	–
CN(C)c1ccc(C(=O)Nc2nnc(-c3ccc(Cl)cc3)o2)cc1	inconclusive: 39.8 µM [inhibitor, single point]	–
COc1ccc(C)cc1NC(=O)C(OC(=O)CNC(=O)c1ccc(Oc2ccccc2)cc1)c1ccccc1 (stereo unspecified)	inconclusive: 31.6 µM [inhibitor, single point]	–
Cn1c(SCC(=O)NCc2cccs2)nnc1-c1cccs1	–	inactive: -2.25%
Cc1ccnc(NC(=O)CCC(=O)N(CC(=O)NC2CCCCC2)c2cccc(C)c2C)c1	inconclusive: 39.8 µM [activator, single point]	–
COc1ccccc1C(=O)Nc1ccc2oc(-c3cccc4c(Br)cccc34)nc2c1	active: 1.26 µM	–
COc1ccc(CCNC(=O)c2c(N)n(CCN3CCOCC3)c3nc4ccccc4nc23)cc1OC	inconclusive: 20 µM [activator, partial curve]	–

SMILES	Potency	max response, negative = inhibition
Nc1nc2ccc(-c3nc4ccccc4o3)cc2s1	inconclusive: 15.8 µM [activator, partial curve]	–
COc1ccc2c(c1)cc1c(=O)n(CC(=O)NC3CC3)nc(C)n12	–	inactive: 11.8%
COc1ccc(-c2nc(C#N)c(N3CCCCCC3)o2)cc1OC	inconclusive: 31.6 µM [activator, partial curve]	–
CCc1cccc(C)c1NC(=O)Cn1nc(C)c2nn(-c3ccc(Cl)cc3)c(C)c2c1=O	inconclusive: 20 µM [activator, partial curve]	–
COc1ccc(/C=C/C(=O)Nc2ccc3nc(N4CCC(C)CC4)cc(C)c3c2)cc1	inconclusive: 3.16 µM [activator, single point]	–
Cc1sc(NC(=O)CSc2nnc(CCNC(=O)c3cccs3)n2C)nc1-c1ccccc1	inconclusive: 39.8 µM [activator, single point]	–
Cc1cc(=O)[nH]c(SCC(=O)Nc2nc(-c3ccccc3)c(-c3ccccc3)o2)n1	inconclusive: 39.8 µM [activator, single point]	–
CCC(C)(C)C(=O)O[C@@H]1C[C@@H](C)C=C2C=C[C@H](C)[C@H](CC[C@@H]3C[C@@H](O)CC(=O)O3)[C@H]21	inconclusive: 15.8 µM [activator, partial curve]	–
CCCN1Cc2cccc(C(=O)Nc3cccc(C(=O)OCC)c3)c2C1=O	–	inactive: -4.78%
CCCOc1cccc(C(=O)Nc2cc(-c3ccccc3)no2)c1	–	inactive: 20.4%
CC(=O)O[C@](C)(CCC=C(C)C)C1CC=C(C)CC1 (stereo partly specified)	–	inactive: 5.95%
CCC(C)C(NC(C)=O)C(=O)NC(=O)NC(c1ccccc1)c1ccccc1 (stereo unspecified)	inconclusive: 31.6 µM [activator, single point]	–
CN1C(=O)N(C)C(=O)C2(Cc3c(nc4ccccn4c3=O)N3CCC(Cc4ccccc4)CC32)C1=O (stereo unspecified)	inconclusive: 31.6 µM [activator, single point]	–
CCN(CC)C(=O)CSc1nc(-c2ccc(C)cc2)nc2c1Cc1c(CO)cnc(C)c1O2	inconclusive: 39.8 µM [activator, single point]	–
COc1ccc(C(=O)Nc2cc(C(=O)c3ccccc3)c(C)oc2=O)cc1	active: 15.8 µM	–
COc1ccc(S(=O)(=O)C(C#N)c2nc3ccccc3nc2N2CCCC(C)C2)cc1 (stereo unspecified)	inconclusive: 15.8 µM [inhibitor, partial curve]	–
COc1ccc(/C=C/C(=O)Nc2nc(-c3cccs3)ns2)cc1OC	inconclusive: 31.6 µM [activator, single point]	–
CCc1ccc(S(=O)(=O)Nc2cccc(-c3ccc(N4CCOCC4)nn3)c2)cc1	–	inactive: 12.7%
CC(C)(C)c1ccc(C(=O)NCC(c2ccc(Cl)cc2)N2CCOCC2)cc1 (stereo unspecified)	inconclusive: 10 µM [activator, partial curve]	–
